About 150 (0.041%) of roughly 370,000 compounds were called active. The shares of active, inactive and inconclusive entries below differ from those in the screen. The call rests on the fitted dose curve; in most records, active means well fitted inhibition curve with a large enough effect; inconclusive means small, poorly fitted or top-dose-only effect; inactive means flat fitted curve, though single readings scatter. No potency is given beside an inconclusive call; the fits are too rough.
Each molecule was assayed against Beta-lactamase (Escherichia coli (strain K12)) (UniProt P00811) (assay: qHTS Inhibitors of AmpC Beta-Lactamase (assay with detergent)). Settings: AmpC hydrolysis of nitrocefin, absorbance 480 nm, 0.01% Triton; activity change, negative = inhibition: at 114 µM (top of the series).
Chain of UniProt P00811 (P00811 whole entry, looked up): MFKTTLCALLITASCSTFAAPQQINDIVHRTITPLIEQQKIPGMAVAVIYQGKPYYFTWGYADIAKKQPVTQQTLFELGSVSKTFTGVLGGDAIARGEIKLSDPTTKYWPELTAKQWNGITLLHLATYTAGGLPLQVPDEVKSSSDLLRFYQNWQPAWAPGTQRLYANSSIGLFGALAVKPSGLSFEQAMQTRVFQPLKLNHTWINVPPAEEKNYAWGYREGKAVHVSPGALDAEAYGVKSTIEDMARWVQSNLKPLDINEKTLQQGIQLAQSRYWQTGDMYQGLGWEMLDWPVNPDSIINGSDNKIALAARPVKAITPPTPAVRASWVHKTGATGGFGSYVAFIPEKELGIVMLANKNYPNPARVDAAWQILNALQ
Method in brief: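 AmpC (5.3 nM in the dispensed reagent) in 20 mM phosphate pH 7.0 with 0.01% (detergent screen) or 0.0001% Triton X-100 was preincubated with compounds for 15 min at room temperature. Nitrocefin was then added from an 800 uM solution, and hydrolysis was followed at 480 nm.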
Further: nearly all actives have a fitted effect of over 25% in size.
Potency means the concentration at half of the fitted maximal effect; tags describe the fitted curve by direction and shape.
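Wherever activity change, negative = inhibition is given: 0% = no-compound wells and -100% = no-enzyme wells.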

| Structure (SMILES) | Potency | activity change, negative = inhibition |
| --- | --- | --- |
| Cc1ccoc1C(=O)Nc1ccc(CC(=O)O)cc1 | inconclusive [inhibitor, full curve, poor fit] | – |
| COc1ccc(C(C#N)(CC(=O)O)c2cnccn2)cc1OC (centres undefined) | inconclusive [inhibitor, partial curve, poor fit] | – |
| O=C(CSc1nc2[nH]ncc2c(=O)[nH]1)Nc1ccc(Cl)c(Cl)c1 | inconclusive [inhibitor, full curve, poor fit] | – |
| COc1ccc(NC(=O)C(c2ccccc2)N(C)C(=O)CNC(C)=O)cc1 (centres undefined) | inconclusive [inhibitor, single point] | – |
| CC(=O)Nc1ccc(NS(C)(=O)=O)cc1 | inconclusive [inhibitor, full curve, poor fit] | – |
| NS(=O)(=O)c1ccc(NC(=O)CCC(=O)c2ccc(Cl)s2)cc1 | inactive | – |
| CCCc1cc(C(=O)Nc2c(C)n(C)n(-c3ccccc3)c2=O)no1 | inactive | – |
| COc1ccc(-c2nc(C)sc2CC(=O)O)cc1 | inconclusive [inhibitor, full curve] | – |
| COc1cc(Br)c(CN2CCCN(C)CC2)cc1OC | inconclusive [inhibitor, full curve, poor fit] | – |
| COc1ccc(CCC(=O)NCc2ccccc2OC)cc1 | inconclusive [inhibitor, full curve, poor fit] | – |
| C/C(=N\N1CCN(C)CC1)c1c(O)[nH]c(=O)[nH]c1=O | inconclusive [inhibitor, full curve, poor fit] | – |
| Cc1cccc(-c2nc(CS(=O)CC(=O)N3CCc4ccccc4C3)c(C)o2)c1 (centres undefined) | inconclusive [inhibitor, full curve, poor fit] | – |
| Oc1ccccc1C1NN=C(c2ccccc2)S1 (centres undefined) | inconclusive [inhibitor, full curve] | – |
| O=C(Nc1nc2ccsc2c(=O)s1)c1ccc(F)cc1Cl | inactive | – |
| Cc1ccc(CC(=O)Nc2c(C(=O)N3CCN(c4ccccc4)CC3)oc3ccccc23)cc1 | inactive | – |
| Cc1nn(CC(=O)NCCCN2CCCCC2)c(=O)c2cc(-c3ccccc3)nn12 | inconclusive [inhibitor, full curve, poor fit] | – |
| Cc1cccc(C(=O)N2CCC(=O)N(C(COCc3cccc(C(F)(F)F)c3)Cc3ccccc3)CC2)c1 (centres undefined) | inconclusive [inhibitor, partial curve, poor fit] | – |
| CC(=O)c1cccc(NC(=O)C2C3C=CC(C3=C(c3ccccc3)c3ccccc3)C2C(=O)O)c1 (centres undefined) | inconclusive [inhibitor, partial curve] | – |
| O=C(Cc1ccc(F)cc1)Nc1cccc(S(=O)(=O)N2CCCC2)c1 | inconclusive [inhibitor, partial curve] | – |
| Cc1c(Cc2ccccc2)c(=O)oc2c(C)c(OCC(=O)NCC3CCC(C(=O)O)CC3)ccc12 (centres undefined) | inconclusive [inhibitor, full curve, poor fit] | – |
| Cn1cccc1C(=O)OCC(=O)Nc1cccc(S(=O)(=O)N2CCOCC2)c1 | inconclusive [inhibitor, single point] | – |
| Cc1ccc(OC/C(=N\O)C(C)(C)C)c([N+](=O)[O-])c1 | inconclusive [inhibitor, partial curve] | – |

| Structure (SMILES) | Potency | activity change, negative = inhibition |
| --- | --- | --- |
| CCOC(=O)N1CCC(Nc2c(Nc3ccc(F)cc3)c(=O)c2=O)CC1 | inconclusive [inhibitor, single point] | – |
| CN(Cc1ccccc1)C(=O)CN1CCCC1=O | inconclusive [inhibitor, full curve, poor fit] | – |
| COc1cccc(-c2nnc(-c3ccc(C(F)(F)F)cc3)o2)c1 | inconclusive [inhibitor, single point] | – |
| COc1ccc(S(=O)(=O)N2CCC(C(=O)NC(c3nc4ccccc4[nH]3)C(C)C)CC2)cc1 (centres undefined) | inconclusive [inhibitor, full curve, poor fit] | – |
| CCN(CC)c1cccc(OC(=O)c2cccnc2Cl)c1 | inconclusive [inhibitor, full curve] | – |
| O=C(N/N=C/c1ccco1)c1ccc(OCc2ccccc2)cc1 | inactive | – |
| CCSc1nnc(-c2cccnc2)n1-c1ccc(C)c(Cl)c1 | inactive | – |
| CCn1nc(C(=O)Nc2ccccc2N2CCCC2)c2ccccc2c1=O | inconclusive [inhibitor, full curve, poor fit] | – |
| CCC(C)c1ccc(NC(=S)Nc2ccc(OC)c(OC)c2)cc1 (centres undefined) | inactive | – |
| Cc1cc(Cl)nc(Cl)c1C(=O)NC(=O)NCCC(C)C | inconclusive [inhibitor, full curve] | – |
| CC1(C)CC(=O)c2ccc(OCc3ccc([N+](=O)[O-])cc3)cc2O1 | inactive | – |
| COc1ccc(-c2ccnc(SCC(=O)N3CCOCC3)n2)cc1 | inconclusive [inhibitor, full curve] | – |
| Cc1ccc(N2C(=O)c3ccccc3C2=O)cc1 | inactive | – |
| Cc1cc2cc(CNC(=O)NC3CCCCC3)ccc2n1C | inconclusive [inhibitor, full curve] | – |
| Cc1ccc(Cn2c(C(=O)O)cc3sccc32)cc1 | inconclusive [inhibitor, full curve] | – |
| O=C(Nc1nccs1)C1CCCN1S(=O)(=O)c1ccc(F)cc1 (centres undefined) | – | inconclusive: -18.2% [inhibitor] |
| CC1CCN(C(=O)COC(=O)c2cc(Cl)cc(Cl)c2N)CC1 | inconclusive [inhibitor, partial curve] | – |
| Cc1cc2c(cc1S(=O)(=O)CCC(=O)N1CCCCC1C)OCC(=O)N2 (centres undefined) | inactive | – |
| CCN1CCN(CCCNC(=O)Cn2c(-c3cccs3)cc3cc(F)ccc32)CC1 | inactive | – |
| c1ccc(-c2noc(COc3ccc4c(c3)OCO4)n2)cc1 | inconclusive [inhibitor, single point] | – |
| Cc1c(Cl)cccc1NC(=O)C1C2C=CC(C2)C1C(=O)O (centres undefined) | inconclusive [inhibitor, full curve, poor fit] | – |
| CCCCn1c(N)c(N(CC(C)C)C(=O)COC(=O)c2ccccc2NCCO)c(=O)[nH]c1=O | inconclusive [inhibitor, full curve, poor fit] | – |
